What was measured:
Type in all cases: in vivo
Alternaia brassicicola = experiment: Test Example C: Alternaria sooty spot on cabbage; conditions: for Test C control value (Alternaria sooty spot on cabbage): class of control value, Table 7; for control value, Test C (Alternaria sooty spot on cabbage): Table 7, Test C; for Test C control value: Alternaria sooty spot on cabbage
Plasmopara viticola = experiment: Test Example G: Downy mildew on vine; conditions: for Test G control value (downy mildew on vine): 250 ppm spray, investigated 7 to 10 days after inoculation; for Test G control value (downy mildew on vine) / Test G control value: 2.5 ml/pot; for control value, Test G (downy mildew on vine): 250 ppm sprayed (2.5 ml/pot) before inoculation, assessed 7 to 10 days after inoculation; for Test G control value: Downy mildew on vine, 250 ppm sprayed, 7 to 10 days after inoculation
Botrytis cinerea = experiment: Test Example B: Gray mold on tomato; conditions: Table 7, Test B
Puccinia recondita = experiment: Test Example E: Brown rust on wheat; conditions: for control value, Test E (brown rust on wheat): Table 7, Test E; for Test E control value (brown rust on wheat): class of control value, Table 7
[1] = tested on: Blumeria graminis f. sp. hordei; experiment: Test Example D: Powdery mildew on barley; conditions: for control value, Test D (powdery mildew on barley): Table 7, Test D; for Test D control value (powdery mildew on barley): class of control value, Table 7

| Compound | control value, Test C (Alternaria sooty spot on cabbage) (Alternaia brassicicola) | control value, Test G (downy mildew on vine) (Plasmopara viticola) | control value, Test E (brown rust on wheat) (Puccinia recondita) | control value, Test D (powdery mildew on barley) [1] | other results |
| --- | --- | --- | --- | --- | --- |
| CCn1c(-c2c(F)cccc2F)c(-c2sc(Br)cc2Br)cc(Br)c1=O [Compound 415] | – | – | – | – | Test C control value (Alternaria sooty spot on cabbage) (Alternaia brassicicola): L (L shows the control value of 50% or less); Test G control value (downy mildew on vine) (Plasmopara viticola): L (L shows the control value of 50% or less) |
| O=c1c(Br)cc(-n2cc(Cl)cn2)c(-c2ccccc2F)n1CC(F)F [Compound 278] | H (H shows the control value more than 50%) | H (H shows the control value more than 50%) | H (H shows the control value more than 50%) | – | control value, Test B (gray mold on tomato) (Botrytis cinerea): H (H shows the control value more than 50%) |
| Cc1cnn(-c2cc(Cl)c(=O)n(CC(F)F)c2-c2c(F)cccc2F)c1Cl [Compound 190] | H (H shows the control value more than 50%) | L (L shows the control value of 50% or less) | H (H shows the control value more than 50%) | H (H shows the control value more than 50%) | – |
| CCn1c(-c2ccc(F)cc2Cl)c(-n2cc(C)cn2)cc(Br)c1=O [Compound 335] | H (H shows the control value more than 50%) | H (H shows the control value more than 50%) | H (H shows the control value more than 50%) | H (H shows the control value more than 50%) | – |
| CCn1c(-c2c(F)cccc2Cl)c(-n2cc(Cl)cn2)ccc1=O [Compound 197] | H (H shows the control value more than 50%) | L (L shows the control value of 50% or less) | H (H shows the control value more than 50%) | – | control value, Test B (gray mold on tomato) (Botrytis cinerea): H (H shows the control value more than 50%) |
| Cc1cnn(-c2cc(Br)c(=O)n(CC(F)F)c2-c2ccccc2C)c1 [Compound 304] | H (H shows the control value more than 50%) | L (L shows the control value of 50% or less) | L (L shows the control value of 50% or less) | H (H shows the control value more than 50%) | – |
| Cc1cnn(-c2cc(Br)c(=O)n(C)c2-c2ccc(F)cc2F)c1 [Compound 411] | – | – | – | – | Test C control value (Alternaria sooty spot on cabbage) (Alternaia brassicicola): H (H shows the control value more than 50%); Test G control value (downy mildew on vine) (Plasmopara viticola): L (L shows the control value of 50% or less); Test D control value (powdery mildew on barley) [1]: L (L shows the control value of 50% or less); Test E control value (brown rust on wheat) (Puccinia recondita): H (H shows the control value more than 50%) |
| O=c1c(Cl)cc(-c2sc(Cl)cc2Br)c(-c2c(F)cccc2F)n1CC(F)F [Compound 419] | – | – | – | – | Test C control value (Alternaria sooty spot on cabbage) (Alternaia brassicicola): H (H shows the control value more than 50%); Test G control value (downy mildew on vine) (Plasmopara viticola): L (L shows the control value of 50% or less) |
| CCn1c(-c2ccc(OC)cc2Cl)c(-n2cc(F)cn2)cc(Cl)c1=O [Compound 361] | H (H shows the control value more than 50%) | L (L shows the control value of 50% or less) | H (H shows the control value more than 50%) | H (H shows the control value more than 50%) | – |
| CCn1c(-c2ccccc2F)c(-n2cc(C)cn2)cc(Br)c1=O [Compound 260] | H (H shows the control value more than 50%) | L (L shows the control value of 50% or less) | L (L shows the control value of 50% or less) | L (L shows the control value of 50% or less) | – |
| CCn1c(-c2c(F)cccc2Cl)c(-n2cc(Cl)cn2)cc(Cl)c1=O [Compound 198] | H (H shows the control value more than 50%) | L (L shows the control value of 50% or less) | L (L shows the control value of 50% or less) | – | control value, Test B (gray mold on tomato) (Botrytis cinerea): L (L shows the control value of 50% or less) |
| CCn1c(-c2ccc(F)cc2F)c(-n2cc(Cl)cn2)cc(Cl)c1=O [Compound 148] | – | – | – | – | Test C control value (Alternaia brassicicola): H (H shows the control value more than 50%); Test G control value (Plasmopara viticola): L (L shows the control value of 50% or less); Test D control value ([1]; Powdery mildew on barley): H (H shows the control value more than 50%); Test E control value (Puccinia recondita; Brown rust on wheat): H (H shows the control value more than 50%) |
| CCn1c(-c2ccccc2[N+](=O)[O-])c(-n2cc(Cl)cn2)cc(Br)c1=O [Compound 257] | L (L shows the control value of 50% or less) | L (L shows the control value of 50% or less) | L (L shows the control value of 50% or less) | – | control value, Test B (gray mold on tomato) (Botrytis cinerea): H (H shows the control value more than 50%) |
| CCn1c(-c2ccc(F)cc2Cl)c(-n2cc(F)cn2)cc(Cl)c1=O [Compound 328] | H (H shows the control value more than 50%) | L (L shows the control value of 50% or less) | H (H shows the control value more than 50%) | – | control value, Test B (gray mold on tomato) (Botrytis cinerea): H (H shows the control value more than 50%) |
| O=c1ccc(-n2cc(F)cn2)c(-c2ccc(F)cc2Cl)n1CC(F)F [Compound 425] | – | – | – | – | Test C control value (Alternaria sooty spot on cabbage) (Alternaia brassicicola): H (H shows the control value more than 50%); Test G control value (downy mildew on vine) (Plasmopara viticola): L (L shows the control value of 50% or less); Test D control value (powdery mildew on barley) [1]: H (H shows the control value more than 50%); Test E control value (brown rust on wheat) (Puccinia recondita): H (H shows the control value more than 50%) |
| CCn1c(-c2ccc(F)cc2Cl)c(-n2cc(C)cn2)ccc1=O [Compound 334] | H (H shows the control value more than 50%) | L (L shows the control value of 50% or less) | H (H shows the control value more than 50%) | H (H shows the control value more than 50%) | – |
| CCn1c(-c2c(F)cccc2F)c(-c2cccnc2Cl)cc(C)c1=O [Compound 66] | – | – | – | – | Test C control value (Alternaia brassicicola): H (H shows the control value more than 50%); Test G control value (Plasmopara viticola): H (H shows the control value more than 50%) |
| CCn1c(-c2ccc(C#N)cc2F)c(-n2ncc(C)c2Cl)cc(Cl)c1=O [Compound 507] | – | – | – | – | Test C control value (Alternaria sooty spot on cabbage) (Alternaia brassicicola): H (H shows the control value more than 50%); Test G control value (downy mildew on vine) (Plasmopara viticola): H (H shows the control value more than 50%) |
| O=c1ccc(-n2cc(Cl)cn2)c(-c2ccccc2Br)n1CC(F)F [Compound 289] | H (H shows the control value more than 50%) | L (L shows the control value of 50% or less) | H (H shows the control value more than 50%) | H (H shows the control value more than 50%) | – |
| O=c1c(Cl)cc(-c2ccsc2Br)c(-c2c(F)cccc2F)n1CC(F)F [Compound 347] | H (H shows the control value more than 50%) | H (H shows the control value more than 50%) | H (H shows the control value more than 50%) | H (H shows the control value more than 50%) | – |
| CCn1c(-c2ccc(NC)cc2F)c(-n2ncc(C)c2Cl)cc(Br)c1=O [Compound 368] | H (H shows the control value more than 50%) | H (H shows the control value more than 50%) | – | – | – |
| CCn1c(-c2c(F)cccc2F)c(-c2sc(Br)cc2Br)ccc1=O [Compound 417] | – | – | – | – | Test C control value (Alternaria sooty spot on cabbage) (Alternaia brassicicola): H (H shows the control value more than 50%); Test G control value (downy mildew on vine) (Plasmopara viticola): L (L shows the control value of 50% or less) |
| CCn1c(-c2ccc(F)cc2F)c(-n2ncc(C)c2Br)cc(Br)c1=O [Compound 270] | H (H shows the control value more than 50%) | L (L shows the control value of 50% or less) | H (H shows the control value more than 50%) | H (H shows the control value more than 50%) | – |
| CCn1c(-c2c(F)cccc2F)c(-c2sccc2Br)ccc1=O [Compound 364] | H (H shows the control value more than 50%) | H (H shows the control value more than 50%) | H (H shows the control value more than 50%) | H (H shows the control value more than 50%) | – |
| CCn1c(-c2ccc(F)cc2F)c(-c2ccsc2Br)ccc1=O [Compound 500] | – | – | – | – | Test C control value (Alternaria sooty spot on cabbage) (Alternaia brassicicola): H (H shows the control value more than 50%); Test G control value (downy mildew on vine) (Plasmopara viticola): H (H shows the control value more than 50%); Test D control value (powdery mildew on barley) [1]: L (L shows the control value of 50% or less); Test E control value (brown rust on wheat) (Puccinia recondita): H (H shows the control value more than 50%) |
| CCn1c(-c2c(F)cccc2Br)c(-n2cc(F)cn2)ccc1=O [Compound 360] | H (H shows the control value more than 50%) | L (L shows the control value of 50% or less) | H (H shows the control value more than 50%) | H (H shows the control value more than 50%) | – |
| O=c1c(Cl)cc(-c2sccc2Br)c(-c2c(F)cccc2F)n1CC(F)F [Compound 420] | – | – | – | – | Test C control value (Alternaria sooty spot on cabbage) (Alternaia brassicicola): H (H shows the control value more than 50%); Test G control value (downy mildew on vine) (Plasmopara viticola): L (L shows the control value of 50% or less) |

From patent publication US11178870B2 (priority 2017, dated 2021)
